# Measurements as given in PubChem BioAssay AID2147 (National Center for Advancing Translational Sciences (NCATS), 2009).
# The campaign covered roughly 230,000 compounds. About 3,600 (1.6%) were called active. Inconclusive means that the source gave no clear call. Such entries were picked first, then a sample of the others. Calls come from the whole dose curve; as a rule, active = well fitted inhibition curve with a large enough effect (not every such curve was filed as active); inconclusive = small, poorly fitted or top-dose-only effect, or another doubt; inactive = no such curve, though single readings can be large or run the other way. Potencies of inconclusive entries are doubtful fits and often do not repeat. Some structures have more than one record in an assay (separate samples or runs), and their calls can disagree.
# Biological target: Lysine-specific demethylase 4E (Homo sapiens) (UniProt B2RXH2)
# Assay: qHTS Assay for Inhibitors of Human Jumonji Domain Containing 2E (JMJD2E)
# Details: JMJD2E catalytic domain, FDH-coupled NADH fluorescence (FDH is formaldehyde dehydrogenase); series mostly up to 57.1 µM
# Note: nearly all actives have a fitted effect of over 50% in size.
# Potency is the fitted concentration of half-maximal effect; tags give direction and shape of the fitted curve.
# UniProt B2RXH2, sequence (B2RXH2 whole entry, looked up, the tested form may be a part): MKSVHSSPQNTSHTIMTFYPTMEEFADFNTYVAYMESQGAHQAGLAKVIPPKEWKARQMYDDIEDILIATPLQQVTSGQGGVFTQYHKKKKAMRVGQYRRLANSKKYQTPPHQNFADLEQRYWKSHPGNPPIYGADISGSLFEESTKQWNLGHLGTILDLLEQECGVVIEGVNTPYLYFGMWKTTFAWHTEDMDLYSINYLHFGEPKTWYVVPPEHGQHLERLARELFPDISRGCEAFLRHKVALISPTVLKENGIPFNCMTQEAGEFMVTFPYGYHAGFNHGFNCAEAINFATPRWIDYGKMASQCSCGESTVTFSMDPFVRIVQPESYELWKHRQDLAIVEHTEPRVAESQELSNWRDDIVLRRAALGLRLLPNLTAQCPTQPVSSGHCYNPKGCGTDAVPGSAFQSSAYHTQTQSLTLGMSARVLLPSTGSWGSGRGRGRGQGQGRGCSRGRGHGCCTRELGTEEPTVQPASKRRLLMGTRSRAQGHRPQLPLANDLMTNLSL
row,Compound,Potency
1,NS(=O)(=O)c1ccc(CCNC(=O)c2cc(-c3ccccc3)nc3ccccc23)cc1,"inconclusive: 28.2 µM [inhibitor, single point]"
2,O=C(Nc1ccc2oc(-c3ccncc3)nc2c1)c1ccc2c(c1)OCCO2,"inconclusive: 31.6 µM [inhibitor, partial curve]"
3,COc1ccc2[nH]c3c(NCCC4=CCCCC4)ncnc3c2c1,"inconclusive: 28.2 µM [inhibitor, partial curve]"
4,CC(=O)c1cc2c(cc1NS(=O)(=O)c1ccccc1F)OCO2,"inconclusive: 39.8 µM [inhibitor, single point]"
5,CCCCC(=O)Nc1ccc2c(c1)nc1n2CCSC1,inactive
6,Cc1cc(C)c(C#N)c(SCc2nc3ccccc3[nH]2)n1,"inconclusive: 31.6 µM [inhibitor, partial curve]"
7,Nc1nc(CSC(=S)N2CCOCC2)nc(Nc2ccc(F)cc2)n1,"inconclusive: 8.91 µM [inhibitor, single point]"
8,COCCNC(=O)/C(C#N)=C/c1c(N2CC(C)OC(C)C2)nc2ccccn2c1=O (centres undefined),"inconclusive: 2.24 µM [inhibitor, full curve]"
9,CCOc1ccccc1NC(=O)CSc1nnc2ccc(-c3cccnc3)nn12,inactive
10,C#CCNc1cc(C)nc2ncnn12,inactive
11,CCCCc1cc(=O)oc2cc(OS(C)(=O)=O)ccc12,"inconclusive: 25.1 µM [inhibitor, partial curve]"
12,Cc1cccc(N2CCc3c2nc2ccc(Br)cc2c3N)c1,"inconclusive: 35.5 µM [inhibitor, single point]"
13,CC1CCCN(S(=O)(=O)c2ccc(C(=O)Nc3nnc(-c4ccncc4)o3)cc2)C1 (centres undefined),"inconclusive: 25.1 µM [inhibitor, single point]"
14,Cc1nc(-c2coc3c(CN(C)C)c(O)ccc3c2=O)cs1,active: 28.2 µM
15,Cc1ccc(NNC(=O)CCc2ccccc2)c(C)c1,inactive
16,CCc1ccccc1N(C1=NCCCS1)S(=O)(=O)c1ccc(C(C)(C)C)cc1,inactive
17,O=C1NCCN(Cc2cccc(Oc3ccccc3)c2)C1CC(=O)N1CCCO1 (centres undefined),"inconclusive: 39.8 µM [inhibitor, single point]"
18,CC(=O)N1N=C(c2cccc([N+](=O)[O-])c2)OC1c1ccc(Br)cc1 (centres undefined),inactive
19,O=C(NC(=S)Nc1ccc(Cc2ccncc2)cc1)c1ccc(F)cc1,inactive
20,Cc1cc(C)n(CCc2nc(-c3cc4ccccc4o3)cs2)n1,inactive
21,Cc1ccc(NC(=S)Nc2cccc(-c3n[nH]c(=S)o3)c2)cc1,"inconclusive: 28.2 µM [inhibitor, partial curve]"
22,O=[N+]([O-])c1ccc(O)c(/C=N/Nc2nn[nH]n2)c1,active: 14.1 µM
23,CCOC(=O)c1c(C)nc2c(C#N)cnn2c1C,"inconclusive: 25.1 µM [inhibitor, partial curve]"
24,O=C1C(Cc2c[nH]c3ccccc23)NC(=S)N1C1CCCCC1 (centres undefined),inactive
25,O=C(CCO)c1ccc(O)cc1,"inconclusive: 35.5 µM [inhibitor, single point]"

row,Compound,Potency
1,CN1CCC(N(C)C(=S)NC(=O)c2cc(-c3cccc(Br)c3)nc3ccccc23)CC1,inactive
2,CCCCC(CC)CN1C(=O)/C(=C/c2ccncc2)SC1=S (centres undefined),"inconclusive: 35.5 µM [inhibitor, single point]"
3,Cc1nn(C)c(C(=O)NNC(=S)NC2CCCCC2)c1Br,"inconclusive: 25.1 µM [inhibitor, single point]"
4,Cc1nnc(-c2cccc(Br)c2)c2cn(-c3ccccc3Cl)nc12,inactive
5,COc1cccc(C2C(C#N)=C(N)Oc3cc(N)ccc32)c1OC (centres undefined),"inconclusive: 35.5 µM [inhibitor, single point]"
6,CC1CCN(Cc2c(C#N)c3ccccc3n2C)CC1,"inconclusive: 39.8 µM [inhibitor, single point]"
7,CC1CCCN(C(=O)C2CCC(CNc3c(N4CCCCC4)c(=O)c3=O)CC2)C1 (centres undefined),inactive
8,COc1ccc(Nc2ncnc3sc(-c4ccccc4)cc23)cc1OC,"inconclusive: 28.2 µM [inhibitor, partial curve]"
9,O=C(Nc1cccc(S(=O)(=O)NC2=NCCC2)c1)c1cc(-c2ccco2)nc2ccccc12,"inconclusive: 28.2 µM [inhibitor, partial curve]"
10,CCOC(=O)C(=Cc1ccc(-n2ccnc2)cc1)C(=O)OCC,active: 11.2 µM
11,CCOC(=O)C1CCCCN1Cc1ccc(F)c(Br)c1 (centres undefined),"inconclusive: 35.5 µM [inhibitor, single point]"
12,Cc1nn(-c2ccccc2)c2c1C(c1ccco1)C(C#N)=C(N)O2 (centres undefined),active: 14.1 µM
13,COc1ccccc1-c1cc(C(=O)NCc2ccccc2)no1,"inconclusive: 35.5 µM [inhibitor, single point]"
14,Cc1nn(-c2ccccc2)c2nc3c(cc12)C(=O)CCC3,"inconclusive: 25.1 µM [inhibitor, partial curve]"
15,O=C(O)Cc1sc(N/N=C\c2ccncc2)nc1-c1ccccc1,"inconclusive: 39.8 µM [inhibitor, single point]"
16,COC(=O)N1CCN(c2ccc(Cl)c(Cl)c2)CC1,inactive
17,N#Cc1ccc(CSc2nnc(-c3ccccc3)n2Cc2ccco2)cc1,inactive
18,C/C(=N\NC(=O)COc1ccccc1-c1ccccc1)c1ccc(O)cc1O,"inconclusive: 39.8 µM [inhibitor, single point]"
19,CC(C)(C)C(=O)Nc1cccc(-c2nc3ccccc3[nH]2)c1,"inconclusive: 25.1 µM [inhibitor, partial curve]"
20,COc1ccc(-c2nsc3c(N4CCCCC4)ncnc23)cc1,"inconclusive: 22.4 µM [inhibitor, partial curve]"
21,CCOc1ccc(-c2cc(CCCC(=O)N3CCN(c4ccc(OC)cc4)CC3)no2)cc1,inactive
22,Fc1ccccc1-c1nc(-c2ccccc2)no1,inactive
23,Cc1nc(-c2coc3cc(O)c(C)cc3c2=O)cs1,"inconclusive: 17.8 µM [inhibitor, partial curve]"
24,c1ccc2c(c1)cnc1ccccc12,"inconclusive: 28.2 µM [inhibitor, single point]"
25,COc1ccc2cc(C3CC(c4cccs4)=NN3S(C)(=O)=O)c(Cl)nc2c1 (centres undefined),"inconclusive: 39.8 µM [inhibitor, single point]"

row,Compound,Potency
1,CCn1c(C)cc(/C=C2/NC(=O)N(c3ccccc3)C2=O)c1C,active: 25.1 µM
2,CC1(C)CC(=O)C(N=Nc2cc3c(cc2[N+](=O)[O-])OCCO3)=C(O)C1,inactive
3,CCc1ccc(C(C(=O)NC2CCCC2)N(C(=O)/C=C/C(=O)Nc2cc(C)on2)c2ccccc2C)cc1 (centres undefined),inactive
4,CC1(C)Cc2nc3nc(SCC(=O)Nc4ccccc4)nc(N)c3cc2CO1,"inconclusive: 25.1 µM [inhibitor, partial curve]"
5,CCOC(=O)/C(=N\Nc1ccccc1)S(=O)(=O)c1ccccc1,inactive
6,O=C(NCCCn1ccnc1)c1cc(-c2cccs2)on1,"inconclusive: 8.91 µM [inhibitor, single point]"
7,Nc1ccccc1N=c1ssnc1Cl,"inconclusive: 28.2 µM [inhibitor, partial curve]"
8,CCN(CC(=O)Nc1ccc2c(c1)OCCO2)c1nc(-c2cccnc2)nc2ccccc12,"inconclusive: 39.8 µM [inhibitor, single point]"
9,CCOC(=O)c1c(CSc2cccs2)n(C)c2cc(Br)c(O)c(CN(C)C)c12,"inconclusive: 1.26 µM [inhibitor, full curve]"
10,CC1(OC(=O)CCc2ccccc2)C(=O)C=C2C=C(c3ccc(C#N)cc3)N(CCc3c[nH]c4ccccc34)C=C2C1=O (centres undefined),active: 15.8 µM
11,O=c1c(C(c2ccc(F)cc2)c2c(O)nc3n(c2=O)CCCS3)c(O)nc2n1CCCS2,inactive
12,FC(F)(F)c1ccccc1-c1nc(N2CCNCC2)c2ccccc2n1,"inconclusive: 39.8 µM [inhibitor, single point]"
13,O=C(CCc1ccccc1)NCCSCc1c(F)cccc1Cl,inactive
14,O=C(C1CCCN(S(=O)(=O)c2cnc[nH]2)C1)N1CCN(c2ccc(Cl)cc2)CC1 (centres undefined),inactive
15,CC(C)c1ccc(CNC(=O)C(=O)Nc2nccs2)cc1,"inconclusive: 39.8 µM [inhibitor, single point]"
16,CN(Cc1nc(Cc2ccccc2F)no1)Cc1cccc2ncccc12,inactive
17,O=C(O)CSc1c(-c2cccs2)[nH]c2ccccc12,"inconclusive: 39.8 µM [inhibitor, single point]"
18,COc1cc2cc(C(=O)N3CCN(Cc4ccc5c(c4)OCO5)CC3)c(=O)oc2cc1OC,"inconclusive: 28.2 µM [inhibitor, partial curve]"
19,CN1CCN(c2ccc(C(=O)c3cn(-c4ccc(F)c(Cl)c4)nn3)cc2)CC1,"inconclusive: 25.1 µM [inhibitor, single point]"
20,O=C(NC(=S)N(Cc1ccccc1)c1ccccn1)C1CC1,"inconclusive: 35.5 µM [inhibitor, single point]"
21,CC(=O)c1c(C)[nH]c(C(=O)Nc2cccc(S(=O)(=O)N(C)c3ccccc3)c2)c1C,"inconclusive: 39.8 µM [inhibitor, single point]"
22,CCN(CC)C(=O)CSc1nc2nc(C)cc(C)c2c(=O)[nH]1,"inconclusive: 31.6 µM [inhibitor, partial curve]"
23,CCOC(=O)c1sc(=NC(=O)c2ccc(S(=O)(=O)N3CC(C)OC(C)C3)cc2)n(C)c1C (centres undefined),inactive
24,CCN1CCN(c2cc(C)c3cc(NC(=O)Cc4ccccc4OC)ccc3n2)CC1,"inconclusive: 11.2 µM [inhibitor, partial curve]"
